Experimental data taken from PMC9911399, “Two distinct binding modes provide the RNA-binding protein RbFox with extraordinary sequence specificity”.
Changes are numbered by the printed parent chain; changes in the protein carry UniProt numbers. The list shows a part of the results.

T1: RBFOX1 RRM RbFoxmut (Fox-RRM*) (Homo sapiens, UniProt Q9NWB1 109-208, R118D;E147R;N151S;E152T)
T1 sequence: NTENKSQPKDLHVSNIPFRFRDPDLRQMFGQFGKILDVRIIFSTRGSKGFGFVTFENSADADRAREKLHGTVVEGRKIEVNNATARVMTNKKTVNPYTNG

B1: UGUAUGG (DNA:RNA)
RNA: GGGAGACCGGAAUUCAGAUUGUCCUGUAUGGUUAAAUCCCGUCGUAGCCACCA
DNA 1: CAATCTGAATTCCGGTCTCCC
DNA 2: TGGTGGCTACGACGGGATT
B2: UGGAAGU (DNA:RNA)
RNA: B1 RNA with U27G, U29A, G31U
DNA 1: CAATCTGAATTCCGGTCTCCC
DNA 2: TGGTGGCTACGACGGGATT
B3: CUCCUUU (DNA:RNA)
RNA: B1 RNA with U25C, G26U, U27C, A28C, G30U, G31U
DNA 1: CAATCTGAATTCCGGTCTCCC
DNA 2: TGGTGGCTACGACGGGATT
B4: AGGGCUC (DNA:RNA)
RNA: B1 RNA with U25A, U27G, A28G, U29C, G30U, G31C
DNA 1: CAATCTGAATTCCGGTCTCCC
DNA 2: TGGTGGCTACGACGGGATT
B5: CCGGAAU (DNA:RNA)
RNA: GGGAGACCGGAAUUCAGAUUGUCCCCGGAAUUUAAAUCCCGUCGUAGCCACCA
DNA 1: CAATCTGAATTCCGGTCTCCC
DNA 2: TGGTGGCTACGACGGGATT
B6: AGUUUAA (DNA:RNA)
RNA: B1 RNA with U25A, A28U, G30A, G31A
DNA 1: CAATCTGAATTCCGGTCTCCC
DNA 2: TGGTGGCTACGACGGGATT
B7: GAUCGAG (DNA:RNA)
RNA: B1 RNA with U25G, G26A, A28C, U29G, G30A
DNA 1: CAATCTGAATTCCGGTCTCCC
DNA 2: TGGTGGCTACGACGGGATT
B8: CGUCGUG (DNA:RNA)
RNA: B1 RNA with U25C, A28C, U29G, G30U
DNA 1: CAATCTGAATTCCGGTCTCCC
DNA 2: TGGTGGCTACGACGGGATT
B9: AACGAGG (DNA:RNA)
RNA: B5 RNA with C25A, C26A, G27C, A30G, U31G
DNA 1: CAATCTGAATTCCGGTCTCCC
DNA 2: TGGTGGCTACGACGGGATT
B10: CUAAGGG (DNA:RNA)
RNA: B1 RNA with U25C, G26U, U27A, U29G
DNA 1: CAATCTGAATTCCGGTCTCCC
DNA 2: TGGTGGCTACGACGGGATT
B11: GAAUCUA (DNA:RNA)
RNA: GGGAGACCGGAAUUCAGAUUGUCCGAAUCUAUUAAAUCCCGUCGUAGCCACCA
DNA 1: CAATCTGAATTCCGGTCTCCC
DNA 2: TGGTGGCTACGACGGGATT
B12: AAAGUAA (DNA:RNA)
RNA: B11 RNA with G25A, U28G, C29U, U30A
DNA 1: CAATCTGAATTCCGGTCTCCC
DNA 2: TGGTGGCTACGACGGGATT
B13: UUUUUCA (DNA:RNA)
RNA: B1 RNA with G26U, A28U, G30C, G31A
DNA 1: CAATCTGAATTCCGGTCTCCC
DNA 2: TGGTGGCTACGACGGGATT
B14: AAAUUUA (DNA:RNA)
RNA: B11 RNA with G25A, C29U
DNA 1: CAATCTGAATTCCGGTCTCCC
DNA 2: TGGTGGCTACGACGGGATT
B15: GUAAUAG (DNA:RNA)
RNA: B1 RNA with U25G, G26U, U27A, G30A
DNA 1: CAATCTGAATTCCGGTCTCCC
DNA 2: TGGTGGCTACGACGGGATT
B16: CUCGACU (DNA:RNA)
RNA: B5 RNA with C26U, G27C, A30C
DNA 1: CAATCTGAATTCCGGTCTCCC
DNA 2: TGGTGGCTACGACGGGATT
B17: UGGAAGG (DNA:RNA)
RNA: B1 RNA with U27G, U29A
DNA 1: CAATCTGAATTCCGGTCTCCC
DNA 2: TGGTGGCTACGACGGGATT
B18: GUAAGAC (DNA:RNA)
RNA: B11 RNA with A26U, U28A, C29G, U30A, A31C
DNA 1: CAATCTGAATTCCGGTCTCCC
DNA 2: TGGTGGCTACGACGGGATT
B19: GCCAAAA (DNA:RNA)
RNA: B5 RNA with C25G, G27C, G28A, U31A
DNA 1: CAATCTGAATTCCGGTCTCCC
DNA 2: TGGTGGCTACGACGGGATT
B20: UGGCUAA (DNA:RNA)
RNA: B1 RNA with U27G, A28C, G30A, G31A
DNA 1: CAATCTGAATTCCGGTCTCCC
DNA 2: TGGTGGCTACGACGGGATT
B21: GUGUAUC (DNA:RNA)
RNA: B11 RNA with A26U, A27G, C29A, A31C
DNA 1: CAATCTGAATTCCGGTCTCCC
DNA 2: TGGTGGCTACGACGGGATT
B22: UGGCUUC (DNA:RNA)
RNA: B1 RNA with U27G, A28C, G30U, G31C
DNA 1: CAATCTGAATTCCGGTCTCCC
DNA 2: TGGTGGCTACGACGGGATT
B23: UUGGGGU (DNA:RNA)
RNA: B5 RNA with C25U, C26U, A29G, A30G
DNA 1: CAATCTGAATTCCGGTCTCCC
DNA 2: TGGTGGCTACGACGGGATT
B24: CGUUUGG (DNA:RNA)
RNA: B1 RNA with U25C, A28U
DNA 1: CAATCTGAATTCCGGTCTCCC
DNA 2: TGGTGGCTACGACGGGATT
B25: UAACAAA (DNA:RNA)
RNA: B11 RNA with G25U, U28C, C29A, U30A
DNA 1: CAATCTGAATTCCGGTCTCCC
DNA 2: TGGTGGCTACGACGGGATT
B26: CUGUAGG (DNA:RNA)
RNA: B5 RNA with C26U, G28U, A30G, U31G
DNA 1: CAATCTGAATTCCGGTCTCCC
DNA 2: TGGTGGCTACGACGGGATT
B27: AUCUAUA (DNA:RNA)
RNA: B11 RNA with G25A, A26U, A27C, C29A
DNA 1: CAATCTGAATTCCGGTCTCCC
DNA 2: TGGTGGCTACGACGGGATT
B28: AGUUGAG (DNA:RNA)
RNA: B1 RNA with U25A, A28U, U29G, G30A
DNA 1: CAATCTGAATTCCGGTCTCCC
DNA 2: TGGTGGCTACGACGGGATT
B29: UGGCUGA (DNA:RNA)
RNA: B1 RNA with U27G, A28C, G31A
DNA 1: CAATCTGAATTCCGGTCTCCC
DNA 2: TGGTGGCTACGACGGGATT
B30: ACUUCUA (DNA:RNA)
RNA: B11 RNA with G25A, A26C, A27U
DNA 1: CAATCTGAATTCCGGTCTCCC
DNA 2: TGGTGGCTACGACGGGATT
B31: AUAUAUA (DNA:RNA)
RNA: B11 RNA with G25A, A26U, C29A
DNA 1: CAATCTGAATTCCGGTCTCCC
DNA 2: TGGTGGCTACGACGGGATT

The binders below were run against T1, RBFOX1 RRM RbFoxmut (Fox-RRM*) (assay: EMSA; HiTS-Eq, 1 nM pool, 10 min; buffer printed only for the single-RNA assays: 10 mM Tris pH 7.5, 150 mM NaCl, 3.4 mM EDTA, 0.001% NP-40, 30 C). Settings: tags: His6 N-terminal (pET28a); label: 5' 32P.
Summary of the method: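 Purified RbFox RRM, wild type or mutant, was incubated for 10 min in 50 µL with 1 nM of a 5′-radiolabelled RNA pool carrying 7 randomized nucleotides, whose flanks were annealed to DNA oligonucleotides, over a series of increasing protein concentrations. Unbound RNA was resolved on 8% native PAGE, cut out, reverse-transcribed, barcoded by PCR and sequenced on an Illumina HiSeq 2500. Relative association constants were derived from changes in read counts for each RNA species versus the control reaction and normalised to the cognate motif.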

Binder	binding signal
B1	0.394 KA relative to UGCAUGU
B2	0.13 KA relative to UGCAUGU
B3	0.0833 KA relative to UGCAUGU
B4	0.0916 KA relative to UGCAUGU
B5	0.108 KA relative to UGCAUGU
B6	0.112 KA relative to UGCAUGU
B7	0.146 KA relative to UGCAUGU
B8	0.156 KA relative to UGCAUGU
B9	0.0903 KA relative to UGCAUGU
B10	0.0601 KA relative to UGCAUGU
B11	0.219 KA relative to UGCAUGU
B12	0.131 KA relative to UGCAUGU
B13	0.107 KA relative to UGCAUGU
B14	0.0884 KA relative to UGCAUGU
B15	0.111 KA relative to UGCAUGU
B16	0.0771 KA relative to UGCAUGU

Binder	binding signal
B17	0.0661 KA relative to UGCAUGU
B18	0.0547 KA relative to UGCAUGU
B19	0.0824 KA relative to UGCAUGU
B20	0.131 KA relative to UGCAUGU
B21	0.424 KA relative to UGCAUGU
B22	0.194 KA relative to UGCAUGU
B23	0.122 KA relative to UGCAUGU
B24	0.137 KA relative to UGCAUGU
B25	0.0629 KA relative to UGCAUGU
B26	0.124 KA relative to UGCAUGU
B27	0.138 KA relative to UGCAUGU
B28	0.133 KA relative to UGCAUGU
B29	0.274 KA relative to UGCAUGU
B30	0.108 KA relative to UGCAUGU
B31	0.19 KA relative to UGCAUGU
